{
  "source": "paper PMC9911399",
  "about": "“Two distinct binding modes provide the RNA-binding protein RbFox with extraordinary sequence specificity”",
  "binders": {"B1": {"name": "CGUGCCG (DNA:RNA)", "RNA": "GGGAGACCGGAAUUCAGAUUGUCCCGUGCCGUUAAAUCCCGUCGUAGCCACCA", "DNA 1": "CAATCTGAATTCCGGTCTCCC", "DNA 2": "TGGTGGCTACGACGGGATT"}, "B2": {"name": "CCUGCUU (DNA:RNA)", "RNA": "B1 RNA with G26C, C30U, G31U", "DNA 1": "CAATCTGAATTCCGGTCTCCC", "DNA 2": "TGGTGGCTACGACGGGATT"}, "B3": {"name": "CGAAUGU (DNA:RNA)", "RNA": "B1 RNA with U27A, G28A, C29U, C30G, G31U", "DNA 1": "CAATCTGAATTCCGGTCTCCC", "DNA 2": "TGGTGGCTACGACGGGATT"}, "B4": {"name": "GUUUUAC (DNA:RNA)", "RNA": "B1 RNA with C25G, G26U, G28U, C29U, C30A, G31C", "DNA 1": "CAATCTGAATTCCGGTCTCCC", "DNA 2": "TGGTGGCTACGACGGGATT"}, "B5": {"name": "UACAUUG (DNA:RNA)", "RNA": "B1 RNA with C25U, G26A, U27C, G28A, C29U, C30U", "DNA 1": "CAATCTGAATTCCGGTCTCCC", "DNA 2": "TGGTGGCTACGACGGGATT"}, "B6": {"name": "AAAAUUG (DNA:RNA)", "RNA": "B1 RNA with C25A, G26A, U27A, G28A, C29U, C30U", "DNA 1": "CAATCTGAATTCCGGTCTCCC", "DNA 2": "TGGTGGCTACGACGGGATT"}, "B7": {"name": "AUUCUUU (DNA:RNA)", "RNA": "B1 RNA with C25A, G26U, G28C, C29U, C30U, G31U", "DNA 1": "CAATCTGAATTCCGGTCTCCC", "DNA 2": "TGGTGGCTACGACGGGATT"}, "B8": {"name": "GCAUCAG (DNA:RNA)", "RNA": "B1 RNA with C25G, G26C, U27A, G28U, C30A", "DNA 1": "CAATCTGAATTCCGGTCTCCC", "DNA 2": "TGGTGGCTACGACGGGATT"}, "B9": {"name": "CAUCACU (DNA:RNA)", "RNA": "B1 RNA with G26A, G28C, C29A, G31U", "DNA 1": "CAATCTGAATTCCGGTCTCCC", "DNA 2": "TGGTGGCTACGACGGGATT"}, "B10": {"name": "GAUUCUA (DNA:RNA)", "RNA": "B1 RNA with C25G, G26A, G28U, C30U, G31A", "DNA 1": "CAATCTGAATTCCGGTCTCCC", "DNA 2": "TGGTGGCTACGACGGGATT"}, "B11": {"name": "UAGGUGA (DNA:RNA)", "RNA": "B1 RNA with C25U, G26A, U27G, C29U, C30G, G31A", "DNA 1": "CAATCTGAATTCCGGTCTCCC", "DNA 2": "TGGTGGCTACGACGGGATT"}, "B12": {"name": "UGCUUGG (DNA:RNA)", "RNA": "B1 RNA with C25U, U27C, G28U, C29U, C30G", "DNA 1": "CAATCTGAATTCCGGTCTCCC", "DNA 2": "TGGTGGCTACGACGGGATT"}, "B13": {"name": "GCUCAAA (DNA:RNA)", "RNA": "B1 RNA with C25G, G26C, G28C, C29A, C30A, G31A", "DNA 1": "CAATCTGAATTCCGGTCTCCC", "DNA 2": "TGGTGGCTACGACGGGATT"}, "B14": {"name": "GGCAUUG (DNA:RNA)", "RNA": "B1 RNA with C25G, U27C, G28A, C29U, C30U", "DNA 1": "CAATCTGAATTCCGGTCTCCC", "DNA 2": "TGGTGGCTACGACGGGATT"}, "B15": {"name": "UCGGUGG (DNA:RNA)", "RNA": "B1 RNA with C25U, G26C, U27G, C29U, C30G", "DNA 1": "CAATCTGAATTCCGGTCTCCC", "DNA 2": "TGGTGGCTACGACGGGATT"}, "B16": {"name": "AUGGUAG (DNA:RNA)", "RNA": "B1 RNA with C25A, G26U, U27G, C29U, C30A", "DNA 1": "CAATCTGAATTCCGGTCTCCC", "DNA 2": "TGGTGGCTACGACGGGATT"}, "B17": {"name": "CCAGUGG (DNA:RNA)", "RNA": "B1 RNA with G26C, U27A, C29U, C30G", "DNA 1": "CAATCTGAATTCCGGTCTCCC", "DNA 2": "TGGTGGCTACGACGGGATT"}, "B18": {"name": "GUGCAAU (DNA:RNA)", "RNA": "GGGAGACCGGAAUUCAGAUUGUCCGUGCAAUUUAAAUCCCGUCGUAGCCACCA", "DNA 1": "CAATCTGAATTCCGGTCTCCC", "DNA 2": "TGGTGGCTACGACGGGATT"}, "B19": {"name": "UGUUCGC (DNA:RNA)", "RNA": "B1 RNA with C25U, G28U, C30G, G31C", "DNA 1": "CAATCTGAATTCCGGTCTCCC", "DNA 2": "TGGTGGCTACGACGGGATT"}, "B20": {"name": "UAGUUGU (DNA:RNA)", "RNA": "B18 RNA with G25U, U26A, C28U, A29U, A30G", "DNA 1": "CAATCTGAATTCCGGTCTCCC", "DNA 2": "TGGTGGCTACGACGGGATT"}, "B21": {"name": "AGACCUA (DNA:RNA)", "RNA": "B1 RNA with C25A, U27A, G28C, C30U, G31A", "DNA 1": "CAATCTGAATTCCGGTCTCCC", "DNA 2": "TGGTGGCTACGACGGGATT"}, "B22": {"name": "CCGAACC (DNA:RNA)", "RNA": "B1 RNA with G26C, U27G, G28A, C29A, G31C", "DNA 1": "CAATCTGAATTCCGGTCTCCC", "DNA 2": "TGGTGGCTACGACGGGATT"}, "B23": {"name": "GUGGAAG (DNA:RNA)", "RNA": "B18 RNA with C28G, U31G", "DNA 1": "CAATCTGAATTCCGGTCTCCC", "DNA 2": "TGGTGGCTACGACGGGATT"}, "B24": {"name": "GAACUGA (DNA:RNA)", "RNA": "B18 RNA with U26A, G27A, A29U, A30G, U31A", "DNA 1": "CAATCTGAATTCCGGTCTCCC", "DNA 2": "TGGTGGCTACGACGGGATT"}, "B25": {"name": "UAUUAUU (DNA:RNA)", "RNA": "B18 RNA with G25U, U26A, G27U, C28U, A30U", "DNA 1": "CAATCTGAATTCCGGTCTCCC", "DNA 2": "TGGTGGCTACGACGGGATT"}, "B26": {"name": "AAUUCAC (DNA:RNA)", "RNA": "B1 RNA with C25A, G26A, G28U, C30A, G31C", "DNA 1": "CAATCTGAATTCCGGTCTCCC", "DNA 2": "TGGTGGCTACGACGGGATT"}, "B27": {"name": "GGGCCGG (DNA:RNA)", "RNA": "B1 RNA with C25G, U27G, G28C, C30G", "DNA 1": "CAATCTGAATTCCGGTCTCCC", "DNA 2": "TGGTGGCTACGACGGGATT"}, "B28": {"name": "CAUCGAA (DNA:RNA)", "RNA": "B1 RNA with G26A, G28C, C29G, C30A, G31A", "DNA 1": "CAATCTGAATTCCGGTCTCCC", "DNA 2": "TGGTGGCTACGACGGGATT"}, "B29": {"name": "AAAUCGC (DNA:RNA)", "RNA": "B1 RNA with C25A, G26A, U27A, G28U, C30G, G31C", "DNA 1": "CAATCTGAATTCCGGTCTCCC", "DNA 2": "TGGTGGCTACGACGGGATT"}, "B30": {"name": "UGCGCUA (DNA:RNA)", "RNA": "B1 RNA with C25U, U27C, C30U, G31A", "DNA 1": "CAATCTGAATTCCGGTCTCCC", "DNA 2": "TGGTGGCTACGACGGGATT"}, "B31": {"name": "GACCCGU (DNA:RNA)", "RNA": "B18 RNA with U26A, G27C, A29C, A30G", "DNA 1": "CAATCTGAATTCCGGTCTCCC", "DNA 2": "TGGTGGCTACGACGGGATT"}},
  "note": "Substitutions are numbered along the chain they refer to; changes in the protein carry UniProt numbers. The list shows a part of the results.",
  "data": [
    {"target": "T1, RBFOX1 RRM (Homo sapiens, UniProt Q9NWB1 109-208)", "T1 sequence": "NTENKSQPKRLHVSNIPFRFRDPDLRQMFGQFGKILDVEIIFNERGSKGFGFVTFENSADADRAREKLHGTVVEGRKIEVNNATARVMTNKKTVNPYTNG", "experiment": "EMSA; HiTS-Eq, 1 nM pool, 10 min; buffer printed only for the single-RNA assays: 10 mM Tris pH 7.5, 150 mM NaCl, 3.4 mM EDTA, 0.001% NP-40, 30 C", "details": "tags: His6 N-terminal (pET28a); label: 5' 32P", "outline": "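Purified RbFox RRM, wild type or mutant, was incubated for 10 min in 50 µL with 1 nM of a 5′-radiolabelled RNA pool carrying 7 randomized nucleotides, whose flanks were annealed to DNA oligonucleotides, over a series of increasing protein concentrations. Unbound RNA was resolved on 8% native PAGE, cut out, reverse-transcribed, barcoded by PCR and sequenced on an Illumina HiSeq 2500. Relative association constants were derived from changes in read counts for each RNA species versus the control reaction and normalised to the cognate motif.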", "values": [
      {"binder": "B1", "binding signal": "0.011 KA relative to UGCAUGU"},
      {"binder": "B2", "binding signal": "0.0137 KA relative to UGCAUGU"},
      {"binder": "B3", "binding signal": "0.0168 KA relative to UGCAUGU"},
      {"binder": "B4", "binding signal": "0.0106 KA relative to UGCAUGU"},
      {"binder": "B5", "binding signal": "0.0129 KA relative to UGCAUGU"},
      {"binder": "B6", "binding signal": "0.00682 KA relative to UGCAUGU"},
      {"binder": "B7", "binding signal": "0.00634 KA relative to UGCAUGU"},
      {"binder": "B8", "binding signal": "0.0121 KA relative to UGCAUGU"},
      {"binder": "B9", "binding signal": "0.000687 KA relative to UGCAUGU"},
      {"binder": "B10", "binding signal": "0.0118 KA relative to UGCAUGU"},
      {"binder": "B11", "binding signal": "0.011 KA relative to UGCAUGU"},
      {"binder": "B12", "binding signal": "0.0481 KA relative to UGCAUGU"},
      {"binder": "B13", "binding signal": "0.00443 KA relative to UGCAUGU"},
      {"binder": "B14", "binding signal": "0.0108 KA relative to UGCAUGU"},
      {"binder": "B15", "binding signal": "0.0215 KA relative to UGCAUGU"},
      {"binder": "B16", "binding signal": "0.0107 KA relative to UGCAUGU"},
      {"binder": "B17", "binding signal": "0.00601 KA relative to UGCAUGU"},
      {"binder": "B18", "binding signal": "0.0149 KA relative to UGCAUGU"},
      {"binder": "B19", "binding signal": "0.0256 KA relative to UGCAUGU"},
      {"binder": "B20", "binding signal": "0.0157 KA relative to UGCAUGU"},
      {"binder": "B21", "binding signal": "0.00181 KA relative to UGCAUGU"},
      {"binder": "B22", "binding signal": "0.00978 KA relative to UGCAUGU"},
      {"binder": "B23", "binding signal": "0.0171 KA relative to UGCAUGU"},
      {"binder": "B24", "binding signal": "0.0167 KA relative to UGCAUGU"},
      {"binder": "B25", "binding signal": "0.00349 KA relative to UGCAUGU"},
      {"binder": "B26", "binding signal": "0.00145 KA relative to UGCAUGU"},
      {"binder": "B27", "binding signal": "0.0124 KA relative to UGCAUGU"},
      {"binder": "B28", "binding signal": "0.00449 KA relative to UGCAUGU"},
      {"binder": "B29", "binding signal": "0.00101 KA relative to UGCAUGU"},
      {"binder": "B30", "binding signal": "0.0155 KA relative to UGCAUGU"},
      {"binder": "B31", "binding signal": "0.00715 KA relative to UGCAUGU"}
    ]}
  ]
}
